These results are taken from publication PMC4336329 (PLoS ONE, 2015).

Hit rate of the full screen: of about 310,000 compounds, about 2,200 (0.71%) showed an effect of 50% or more. The effect is printed as a negative number. Some of the results follow.

For the assay, the target named is human ether-à-go-go-related gene (hERG) potassium channel (human, UniProt Q12809). The assay is described as follows: primary screen, population patch clamp on CHO cells stably expressing hERG.
human ether-à-go-go-related gene (hERG) potassium channel, sequence (Q12809 whole entry, looked up): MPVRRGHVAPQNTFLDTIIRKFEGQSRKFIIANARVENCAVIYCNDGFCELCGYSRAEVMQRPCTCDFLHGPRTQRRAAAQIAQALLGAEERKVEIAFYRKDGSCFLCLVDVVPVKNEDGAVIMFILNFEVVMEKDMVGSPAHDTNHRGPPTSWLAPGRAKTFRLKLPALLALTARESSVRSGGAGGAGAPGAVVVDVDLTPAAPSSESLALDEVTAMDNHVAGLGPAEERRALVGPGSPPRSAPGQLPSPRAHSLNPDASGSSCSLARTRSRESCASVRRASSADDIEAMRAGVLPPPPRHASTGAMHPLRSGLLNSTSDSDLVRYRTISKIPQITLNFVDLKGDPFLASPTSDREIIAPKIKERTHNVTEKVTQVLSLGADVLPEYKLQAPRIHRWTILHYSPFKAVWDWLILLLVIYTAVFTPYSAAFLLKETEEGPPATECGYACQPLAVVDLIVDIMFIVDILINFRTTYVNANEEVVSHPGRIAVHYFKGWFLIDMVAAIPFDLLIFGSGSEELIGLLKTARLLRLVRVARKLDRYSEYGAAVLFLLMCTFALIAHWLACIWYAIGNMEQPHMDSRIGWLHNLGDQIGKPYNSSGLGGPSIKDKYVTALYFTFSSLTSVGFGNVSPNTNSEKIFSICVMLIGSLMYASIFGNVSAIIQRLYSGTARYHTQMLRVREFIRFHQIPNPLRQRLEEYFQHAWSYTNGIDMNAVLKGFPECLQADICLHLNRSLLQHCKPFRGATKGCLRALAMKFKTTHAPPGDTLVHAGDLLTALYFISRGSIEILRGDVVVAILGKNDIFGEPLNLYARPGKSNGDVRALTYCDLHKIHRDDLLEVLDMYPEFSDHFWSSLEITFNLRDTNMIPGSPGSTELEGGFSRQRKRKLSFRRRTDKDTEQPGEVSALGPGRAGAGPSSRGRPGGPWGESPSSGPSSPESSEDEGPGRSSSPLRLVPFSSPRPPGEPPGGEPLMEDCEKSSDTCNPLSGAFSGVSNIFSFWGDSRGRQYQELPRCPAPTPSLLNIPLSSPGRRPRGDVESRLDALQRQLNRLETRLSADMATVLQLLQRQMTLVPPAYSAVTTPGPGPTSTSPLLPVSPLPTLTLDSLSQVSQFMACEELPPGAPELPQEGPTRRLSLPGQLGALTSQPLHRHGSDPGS
With `C/C(=N\O)C(C)(C)NC(=O)Nc1ccc(Cl)cc1`, the “hERG current change (%, negative = inhibition) at 1uM” value is reported as 8.92%.
On to `COc1cc(/C=N/Nc2ccc(Cl)cc2)ccc1OC(=O)c1cccs1.Cl`, for which the “hERG current change (%, negative = inhibition) at 1uM” value is given as 8.87%.
To `O=C(N/C(=C/c1ccc(Br)cc1)c1nc2ccccc2[nH]1)c1ccco1` belongs 4.61%.
In the case of `CC12C=CC3(CN(Cc4ccccc4)C(=O)C3C1C(=O)NC1CC1)O2` (stereo not drawn), the “hERG current change (%, negative = inhibition) at 1uM” value amounted to 14.3%.
To `O=C(NCCCN1CCOCC1)c1cc2ccccc2oc1=O` belongs -8.41%; to `NC(=O)CSc1nc2ccccc2n1Cc1ccccc1F`, 1.8%.
`CC(C)N(C(=O)Cn1cc(S(=O)(=O)CC(=O)N2CCOCC2)c2ccccc21)C(C)C`: the “hERG current change (%, negative = inhibition) at 1uM” value is given as -0.709%.
In the case of `Cc1ccc(C2C(C(=O)c3ccco3)=C(O)C(=O)N2c2nnc(C)s2)cc1` (stereo not drawn), the “hERG current change (%, negative = inhibition) at 1uM” value was 6.73%.
Then `CC1=C(C(=O)Nc2ccc(Cl)cc2)C(c2cccs2)n2nnnc2N1` (stereo not drawn), with -13.9%; and `Cc1cccc(NC(=O)CCCn2c(=S)[nH]c3ccccc3c2=O)c1`, with 6.15%.
Consider `COc1ccccc1NS(=O)(=O)c1ccc(C(=O)OCC(=O)NCc2ccco2)cc1`, for which the “hERG current change (%, negative = inhibition) at 1uM” value is 2.97%.
Turning to `Cc1ccccc1CN1CCCOCCS1(=O)=O`, the “hERG current change (%, negative = inhibition) at 1uM” value was 1.17%.
To `COc1ccccc1N1CCN(C2CCCN(Cc3c(F)cccc3F)C2)CC1` (stereo not drawn) belongs -1.95%.
For the molecule `COc1cc(S(=O)(=O)N2CCOCC2)ccc1NC(=O)c1cc2c(s1)CCC2`, the “hERG current change (%, negative = inhibition) at 1uM” value turned out to be 3.78%.
For `Cn1c(=O)c2c(nc(CN3CCc4ccccc4C3)n2Cc2cccc(Cl)c2)n(C)c1=O`, the “hERG current change (%, negative = inhibition) at 1uM” value is -0.691%.
Regarding `C=C1C(=O)O[C@@H]2C[C@@H](C)[C@@H]3C=CC(=O)[C@@]3(C)[C@@H](O)[C@H]12`, the “hERG current change (%, negative = inhibition) at 1uM” value turned out to be 14.8%.
On to `COc1cccc(NC(=S)N2CCN(S(=O)(=O)c3ccccc3)CC2)c1`, for which the “hERG current change (%, negative = inhibition) at 1uM” value worked out at 13.1%.
In the case of `COC(=O)c1ccccc1NC(=O)c1c(Br)cnn1C`, the “hERG current change (%, negative = inhibition) at 1uM” value came to 8.01%.
As to `Br.COc1ccc(-c2csc(=NCCO)n2-c2ccccc2)cc1`, the “hERG current change (%, negative = inhibition) at 1uM” value came to 9.52%.
Consider `CCn1cc(C(=O)NCCC(C)C)c(=O)c2cc(S(=O)(=O)N3CCCCC3)ccc21`, for which the “hERG current change (%, negative = inhibition) at 1uM” value was 6.52%.
Take `COc1cc(/C=C/C(=O)O)cc(S(=O)(=O)Nc2ccc(F)cc2)c1OC`: the “hERG current change (%, negative = inhibition) at 1uM” value amounted to 14.4%.
On to `COc1ccc(Br)cc1CNc1ccc(S(N)(=O)=O)cc1`, for which the “hERG current change (%, negative = inhibition) at 1uM” value was found to be 6.29%.
Consider `COc1cccc(OC)c1C(=O)Nc1cc2c(cc1N1CCOCC1)n(C)c(=O)n2C`, for which the “hERG current change (%, negative = inhibition) at 1uM” value came out at 12.5%.
Then `Cc1cccc(-n2c(SCC(=O)N3CCCC3)nc3n[nH]c(C)c3c2=N)c1`, with -2.81%.
For the molecule `CC1(C)Cc2c(sc3nc(-c4ccccc4)oc(=O)c23)CO1`, the “hERG current change (%, negative = inhibition) at 1uM” value was 4.22%.
Regarding `COC(=O)C1=C(c2ccc(-c3ccccc3)c(F)c2)C[C@@H]2CC[C@H]1N2C(=O)NC1CC1`, the “hERG current change (%, negative = inhibition) at 1uM” value is listed as -4.48%.
With `COc1cccc(-c2cc(C(=O)N3CC4(C)CC3CC(C)(C)C4)no2)c1` (stereo not drawn), the “hERG current change (%, negative = inhibition) at 1uM” value is recorded as -2.6%.
Then `O=C(Cn1nc(-c2ccc(Cl)cc2)c2ccccc2c1=O)Nc1cccnc1`, with 4.61%; and `O=C(CCN1C(=O)/C(=C/c2ccccc2)SC1=S)NNC(=O)c1cccnc1`, with 17.5%; and `COc1ccc(-n2nnnc2SCC(=O)Nc2ccccc2N2CCOCC2)cc1`, with -6.62%.
In the case of `COc1ccc2[nH]cc(CCNC(=O)C3CC(=O)N(c4ccc(Cl)cc4)C3)c2c1` (stereo not drawn), the “hERG current change (%, negative = inhibition) at 1uM” value is 11.1%.
For `O=C1CSC(c2ccncc2)N1Cc1ccc(F)cc1` (stereo not drawn), the “hERG current change (%, negative = inhibition) at 1uM” value came to 11.3%.
Turning to `O=C(/C=C/c1cccs1)N1CCC2(CC1)Oc1ccc(Cl)cc1C(=O)C21CC(c2ccccc2)=NO1` (stereo not drawn), the “hERG current change (%, negative = inhibition) at 1uM” value is listed as 17.1%.
For the molecule `O=C(COc1coc(CN2CCc3ccccc3C2)cc1=O)Nc1ccccc1F`, the “hERG current change (%, negative = inhibition) at 1uM” value was 7.92%.
In the case of `Cc1cc(NS(=O)(=O)c2ccc(NC(=O)/C=C/c3cccc(Cl)c3)cc2)no1`, the “hERG current change (%, negative = inhibition) at 1uM” value is on record as 16.1%.
Take `COc1ccc(/C=C/C=C2\NC(=S)NC2=O)cc1`: the “hERG current change (%, negative = inhibition) at 1uM” value stood at 14.5%.
To `CC(=O)c1sc(NC(=O)C2CSC3(C)CCC(=O)N23)nc1-c1ccccc1` (stereo not drawn) belongs 4.11%.
As to `Cc1cc(C)c(NS(=O)(=O)c2c(C)noc2C)c(C)c1`, the “hERG current change (%, negative = inhibition) at 1uM” value is recorded as 12.6%.
Turning to `Cc1cccc(NS(=O)(=O)c2ccc(C(=O)NCC3(N4CCCCC4)CCCCC3)cc2)c1C`, the “hERG current change (%, negative = inhibition) at 1uM” value is -0.915%.
With `CCC1CCCCN1C(=O)c1ccccc1OC1CCN(S(C)(=O)=O)CC1` (stereo not drawn), the “hERG current change (%, negative = inhibition) at 1uM” value is given as 9.54%.
As for `Cc1cc(C)n(CC(=O)c2cccc([N+](=O)[O-])c2)n1`, the “hERG current change (%, negative = inhibition) at 1uM” value was 11.9%.
Turning to `O=C1NC2(C=Cc3c(ccc4ccccc34)O2)Oc2ccccc21` (stereo not drawn), the “hERG current change (%, negative = inhibition) at 1uM” value stood at 11.9%.
Consider `CC1Cc2ccccc2N1C(=O)CN1CCN(Cc2ccccc2)CC1.O=C(O)C(=O)O` (stereo not drawn), for which the “hERG current change (%, negative = inhibition) at 1uM” value stood at 12.6%.
As to `CCC(NC(=O)NNC(N)=S)(C(F)(F)F)C(F)(F)F`, the “hERG current change (%, negative = inhibition) at 1uM” value is on record as 2.63%.
Turning to `COC1CCCN(Cc2c(C(=O)N3CCc4ccccc4C3)nc3ccc(Cl)cn23)C1` (stereo not drawn), the “hERG current change (%, negative = inhibition) at 1uM” value amounted to 4.27%.
Turning to `CCOc1ccc(N2CC(NS(=O)(=O)c3cccs3)CC2=O)cc1` (stereo not drawn), the “hERG current change (%, negative = inhibition) at 1uM” value is on record as 11.6%.
`CCOc1ccc(Nc2nc(Cc3nnc(SCC(=O)N(CC)CC)n3C)cs2)cc1`: the “hERG current change (%, negative = inhibition) at 1uM” value came out at 3.38%.
To `COc1ccc(CCNC(=O)c2ccccc2)cc1` belongs 7.62%.
Regarding `COc1ccc(-c2cc(CNS(=O)(=O)c3ccc(F)cc3)on2)cc1`, the “hERG current change (%, negative = inhibition) at 1uM” value turned out to be 18.4%.
To `Cc1ccc(CNC(=O)COC(=O)c2ccc(Cl)c(N)c2)cc1` belongs 2.65%; to `COc1ccc(C(=O)Nc2ccccc2C(=O)N2CCOCC2)cc1`, 17%; to `CC1(C)CC(=O)N(c2cccc(Cl)c2)C(=O)C1`, 12.1%.
Take `OCC(CBr)(CBr)CBr`: the “hERG current change (%, negative = inhibition) at 1uM” value was determined as 20.2%.
For the molecule `O=C(Nc1ccc2nc3n(c(=O)c2c1)CCCCC3)C(=O)N1CCN(c2ccccc2F)CC1`, the “hERG current change (%, negative = inhibition) at 1uM” value is reported as 14.7%.
Then `C=CCN1C(=O)/C(=C/c2ccc3c(c2)CCCN3CCC)C(=O)NC1=S`, with 6.31%.
Consider `CC(CNC(=O)c1ccc(N)cc1)NC(=O)c1ccc(N)cc1` (stereo not drawn), for which the “hERG current change (%, negative = inhibition) at 1uM” value is given as 12%.
Consider `C=CCn1sc(=N)c(C#N)c1N`, for which the “hERG current change (%, negative = inhibition) at 1uM” value amounted to 0.476%.
For `O=C(CSc1ccc(-c2ccco2)nn1)NC1CCCCC1`, the “hERG current change (%, negative = inhibition) at 1uM” value was -2.98%.
Consider `COc1ccc(CCNC(=O)CCS(=O)(=O)c2ccc(Br)cc2)cc1OC`, for which the “hERG current change (%, negative = inhibition) at 1uM” value is -3.51%.
Consider `Cc1cc(NC(=O)c2cccc(Br)c2)n[nH]1`, for which the “hERG current change (%, negative = inhibition) at 1uM” value is recorded as 8.04%.
As for `O=C(O)c1ccccc1S(=O)(=O)Cc1ccccc1`, the “hERG current change (%, negative = inhibition) at 1uM” value stood at 9.84%.
As to `Cc1nc2ccc(NC(=O)c3ccc4ccccc4n3)cc2s1`, the “hERG current change (%, negative = inhibition) at 1uM” value turned out to be 12.1%.
Consider `COc1ccc(NC(=O)C2(c3ccc(NC(=O)c4ccc(OC(C)=O)cc4)cc3)CCCC2)cc1`, for which the “hERG current change (%, negative = inhibition) at 1uM” value was 11.8%.
Then `Nc1nc(SCC(=O)Nc2cc(C(F)(F)F)ccc2Cl)[nH]c(=O)c1NC(=O)c1ccco1`, with 16.7%.
For the molecule `CN(C(=O)NC1CC(=O)N(c2ccc3c(c2)OCCO3)C1)c1ccccc1` (stereo not drawn), the “hERG current change (%, negative = inhibition) at 1uM” value was found to be 2.53%.
Consider `COc1ccc(C)cc1NC(=O)C(Sc1nnc2ccccn12)c1ccccc1` (stereo not drawn), for which the “hERG current change (%, negative = inhibition) at 1uM” value is reported as -20.9%.
Turning to `CCN(CC)C(=O)C(Sc1nnnn1-c1ccc(O)cc1)c1ccccc1` (stereo not drawn), the “hERG current change (%, negative = inhibition) at 1uM” value stood at 14.1%.
In the case of `O=C(O)C1=C[C@H](c2ccc(F)cc2)C[C@H](OCc2ccc(CO)cc2)O1`, the “hERG current change (%, negative = inhibition) at 1uM” value is reported as 4.46%.
Regarding `COc1ccc(NS(=O)(=O)c2cc(NC(=O)/C=C/c3cc(OC)c(OC)c(OC)c3)ccc2N2CCCCC2)cc1`, the “hERG current change (%, negative = inhibition) at 1uM” value was determined as 6.88%.
To `O=C1C2C3C=CC(CC3)C2C(=O)N1c1cccc(Br)c1` (stereo not drawn) belongs 18.4%; to `Cc1cnc(CNC(=O)C2CCC(=O)N(CCc3cccc(F)c3)C2)[nH]1` (stereo not drawn), 7.57%; to `CCCCn1c(N)c(N(CC(C)C)C(=O)c2cc(-c3ccncc3)nc3ccccc23)c(=O)[nH]c1=O`, 12.3%.
In the case of `Cc1cc(C(=O)OCC(=O)Nc2sc3c(c2C#N)CCC(C)C3)c2ccccc2n1` (stereo not drawn), the “hERG current change (%, negative = inhibition) at 1uM” value is listed as -1.12%.
Then `Cc1cc(OCCN2CCOCC2)ccc1[N+](=O)[O-].O=C(O)C(=O)O`, with 10.6%; and `C=CCn1c(=N)n(CC(O)COc2ccccc2OC)c2ccccc21.Cl` (stereo not drawn), with -43.5%; and `CCOC(=O)c1cnc(-n2nc(C)cc2C)nc1NC`, with -0.773%.
Then `CCOc1ccccc1NC(=O)Cn1nnc(C(=O)NCc2cccs2)c1N`, with 12.1%; and `N#Cc1c(Nc2ccccc2)sc(C(=O)c2ccc(F)cc2)c1N`, with 8.25%; and `O=C(Cn1ncc(N2CCOCC2)c(Cl)c1=O)c1ccc(Cl)cc1`, with -2.13%.
Take `COc1ccccc1NC(=O)Cn1nc(-c2ccc3c(c2)OCCO3)ccc1=O`: the “hERG current change (%, negative = inhibition) at 1uM” value amounted to 2.91%.
As for `CCCc1n[nH]c(=O)[nH]1`, the “hERG current change (%, negative = inhibition) at 1uM” value worked out at 7.57%.
On to `COc1cc(NC(=O)C2CC3CCC2C3)c(OC)cc1Cl` (stereo not drawn), for which the “hERG current change (%, negative = inhibition) at 1uM” value was 14.4%.
To `O=C(CCCc1ccccc1)Nc1ccnn1C1CCN(Cc2ccccn2)CC1` belongs 0.247%.
For `Cc1ccccc1NC(=O)Nc1ccc(C(F)(F)F)cc1`, the “hERG current change (%, negative = inhibition) at 1uM” value worked out at 22%.
On to `O=C(NC(Cc1ccc(O)cc1)C(=O)O)c1ccco1` (stereo not drawn), for which the “hERG current change (%, negative = inhibition) at 1uM” value was 14%.
Then `Cc1ccc(S(=O)(=O)N2CCN(C)CC2)cc1[N+](=O)[O-]`, with -2.01%; and `O=C(CCCSc1ccccc1)Nc1ccc(Cl)c(S(=O)(=O)N2CCOCC2)c1`, with 9.14%.
